{"source": "PubChem BioAssay AID686978", "about": "(National Center for Advancing Translational Sciences (NCATS), 2013)", "note": "The campaign covered roughly 420,000 compounds. About 64,000 (15%) were called active. Inconclusive means that the source gave no clear call. Such entries were picked first, then a sample of the others. Calls follow the shape of the dose curve; as a rule, active = well fitted inhibition curve with a large enough effect; inconclusive = small, poorly fitted or top-dose-only effect; inactive = flat fitted curve, though single readings scatter. No potency is given beside an inconclusive call; the fits are too rough.", "data": [{"assay": "qHTS for Inhibitors of human tyrosyl-DNA phosphodiesterase 1 (TDP1): qHTS in cells in absence of CPT; also: nearly all actives have a fitted effect of over 55% in size; also: potency is read from the fitted curve at half-maximal effect; tags tell the direction and shape of the fitted curve; as to activity change, negative = growth inhibition: % is scaled to controls: 0 for no effect and ±100 for the full control effect", "conditions": "DT40 Tdp1-/- hTDP1 cells, no CPT, ATP luminescence, 48 h; activity change, negative = growth inhibition: at 46.2 µM (top of the series) unless noted", "procedure,_shortened": "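DT40 Tdp1-/-;hTDP1 cells, no CPT (DMSO vehicle only), 400 cells/well; compounds pin-transferred; ≥48 hr, 37 °C; CellTiter-Glo 30 min RT dark, luminescence read.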", "values": [{"compound": "CN(C(=O)CN1C(=O)NC2(CCc3ccccc32)C1=O)C1CCS(=O)(=O)C1", "note": "(stereo not drawn)", "Potency": "inactive"}, {"compound": "O=C1Nc2c(c(=O)[nH]c(=O)n2-c2ccccc2)C(C(F)(F)F)(C(F)(F)F)N1", "Potency": "inactive"}, {"compound": "COc1ccc(-c2cc(C(F)(F)F)n3nc(C(=O)N4CCCCC4)cc3n2)cc1OC", "Potency": "active: 18.4 µM"}, {"compound": "CCCCc1nc2cc(C(=O)N3CCC(OC)CC3)ccc2o1", "Potency": "inactive"}, {"compound": "CCOC(=O)N1CCN(CC(O)COCc2ccc(Cl)cc2)CC1", "note": "(stereo not drawn)", "Potency": "inconclusive [inhibitor, single point]"}, {"compound": "Cc1ccc(C(=O)CSc2nnc(CNc3ccc(C)cc3C)o2)cc1", "Potency": "inconclusive [inhibitor, single point]"}, {"compound": "COCCn1c(C)cc(/C=C2/NC(=O)N(c3cccc(Cl)c3)C2=O)c1C", "Potency": "inconclusive [inhibitor, single point]"}, {"compound": "Cc1ccc(Nc2c(-c3ccc(N4CCOCC4)cc3)nc3cnccn23)cc1", "Potency": "inconclusive [inhibitor, single point]"}, {"compound": "CCOC(=O)c1cc2c(ccn2C)n1CC(=O)N(Cc1ccccc1)c1ccccc1", "Potency": "inconclusive [inhibitor, single point]"}, {"compound": "C=CCN1C(=O)/C(=c2\\sc3nc(=O)c(Cc4ccc(OC)c(OC)c4)nn3c2=O)c2ccccc21", "Potency": "inconclusive [inhibitor, single point]"}, {"compound": "O=C(Nc1ccc2oc(-c3cccc(Cl)c3Cl)nc2c1)c1cccc(Br)c1", "Potency": "inconclusive [inhibitor, single point]"}, {"compound": "CCOC(=O)N1CCC(Nc2c(NCCCN(CC)Cc3ccccc3)c(=O)c2=O)CC1", "Potency": "inactive"}, {"compound": "Cc1ccccc1Cn1cc(NC(=O)CSc2nc3c(c(C(F)(F)F)n2)CCc2ccccc2-3)cn1", "Potency": "inconclusive [inhibitor, single point]"}, {"compound": "O=C(NC(=S)NCC1CCCO1)c1ccc([N+](=O)[O-])cc1", "note": "(stereo not drawn)", "Potency": "inactive"}, {"compound": "Cc1ccc(CNS(=O)(=O)N(C)C)cc1", "Potency": "inactive"}, {"compound": "Cc1oc(-c2ccccc2Cl)nc1Cn1cccc1C1=NC(c2ccccc2)CO1", "note": "(stereo not drawn)", "Potency": "inconclusive [inhibitor, single point]"}, {"compound": "FC(F)Oc1ccc(NC(=S)NCc2ccco2)cc1Cl", "Potency": "inconclusive [inhibitor, partial curve, poor fit]"}, {"compound": "CC(C)CNS(=O)(=O)c1ccc(NC(=O)Cn2nc(-c3ccc(F)cc3)ccc2=O)cc1", "Potency": "inconclusive [inhibitor, single point]"}, {"compound": "CCN(CC)C(=O)Cn1cc(C(=O)C(=O)N2CCN(c3ccc([N+](=O)[O-])cc3)CC2)c2ccccc21", "Potency": "active: 7.31 µM"}, {"compound": "COc1cc(Cl)c(C)cc1NC(=O)CNC(=O)Cn1cnc2ccccc2c1=O", "Potency": "inactive"}, {"compound": "COc1cccc(CN2CCN(c3ncccn3)CC2)c1OC", "Potency": "inactive"}, {"compound": "COc1ccc(CSCC(=O)Nc2ccccc2)cc1[N+](=O)[O-]", "Potency": "inactive"}, {"compound": "COc1ccccc1CC(=O)Nc1cccc(C(=O)Nc2nccs2)c1", "Potency": "inconclusive [inhibitor, single point]"}, {"compound": "CC(C)C[C@@H](C)C(=O)N(Cc1ccccc1)c1ccccc1", "Potency": "inconclusive [inhibitor, single point]"}, {"compound": "O=C(O)c1ccc2c(=O)[nH]c(CCl)nc2c1", "Potency": "inconclusive [inhibitor, full curve, poor fit]"}, {"compound": "COc1ccccc1CN(C)C(=O)c1cnc(C)cn1", "Potency": "inactive"}, {"compound": "CCCCn1nc(NC(=O)c2cccs2)c2cc3cc(OC)ccc3nc21", "Potency": "active: 23.1 µM"}, {"compound": "Cn1c(C(=O)NC2CCCCCC2)cc2c(=O)n(C)c3ccccc3c21", "Potency": "active: 16.4 µM"}, {"compound": "COc1ccccc1NC(=O)C1=C(C)Nc2nc(SCc3ccccc3Cl)nn2C1c1ccncc1", "note": "(stereo not drawn)", "Potency": "inactive"}, {"compound": "Cc1ccc(C(=O)Nc2ccc3c(c2)CCC3)cc1S(=O)(=O)N1CCOCC1", "Potency": "inconclusive [inhibitor, single point]"}, {"compound": "COc1ccc(-c2ccc(=O)n(CC(=O)NCCc3ccccc3)n2)cc1", "Potency": "inactive"}, {"compound": "COc1ccc(/C=C/C(=O)C(C(N)=O)=C2SCCS2)cc1", "Potency": "inconclusive [inhibitor, partial curve]"}, {"compound": "N#Cc1ccc(C(=O)OCC(=O)Nc2ccc(N3CCOCC3)cc2)cc1", "Potency": "inactive"}, {"compound": "Fc1cccc(Cl)c1CSc1nnc2ccccn12", "Potency": "inactive"}, {"compound": "Fc1ccc2c(c1)C(c1cccnc1)=NNC(c1cccs1)=N2", "Potency": "inconclusive [inhibitor, single point]"}, {"compound": "CCOc1ccc(C(=O)c2cn(CC(=O)Nc3cc(OC)ccc3OC)c3cc(OC)c(OC)cc3c2=O)cc1", "Potency": "active: 16.4 µM"}, {"compound": "O=C(NNc1ccc([N+](=O)[O-])cc1)Nc1ccccc1", "Potency": "inconclusive [inhibitor, partial curve]"}, {"compound": "Cc1c(CNC(=O)C2CC2)c(-n2cccc2)n(Cc2ccccc2)c1C", "Potency": "inconclusive [inhibitor, partial curve]"}, {"compound": "CC(O)(c1cccc(F)c1)c1nc(-c2ccc(Cl)cc2)cs1", "note": "(stereo not drawn)", "Potency": "inconclusive [inhibitor, single point]"}, {"compound": "O=S(=O)(N/N=C1/CC(c2ccccc2)Oc2ccccc21)c1ccc(Br)cc1", "note": "(stereo not drawn)", "Potency": "inconclusive [inhibitor, single point]"}, {"compound": "CC(=O)c1c(N2CCN(Cc3ccc4c(c3)OCO4)CC2)nc(=S)n(-c2ccccc2)c1C", "Potency": "active: 18.4 µM"}, {"compound": "CC(=O)Nc1ccc(S(=O)(=O)N2CCN(C(=O)c3ncoc3-c3ccc(C)cc3)CC2)cc1", "Potency": "inconclusive [inhibitor, single point]"}, {"compound": "O=S1(=O)c2ccc(Br)cc2N2CCC[C@@H]2CN1C1CC1", "Potency": "inconclusive [inhibitor, partial curve]"}, {"compound": "COc1cc(C2CC(=O)Oc3cc(OC)c(OC)c(OC)c32)cc(OC)c1OC", "note": "(stereo not drawn)", "Potency": "inactive"}, {"compound": "CC1C2NC(=O)N(Cc3ccccc3)C1(C)Oc1ccccc12", "note": "(stereo not drawn)", "Potency": "inconclusive [inhibitor, single point]"}, {"compound": "Cc1c(OCC(=O)NCCCN2CCOCC2)ccc2c(-c3ccccc3)cc(=O)oc12", "Potency": "inconclusive [inhibitor, single point]"}, {"compound": "COc1ccc(NCc2nnc3n2CCCCC3)c(OC)c1", "Potency": "inactive"}, {"compound": "O=C(CN1C(=O)C2(SCC(=O)N2c2ccc(F)cc2)c2ccccc21)NCCc1ccccc1", "note": "(stereo not drawn)", "Potency": "inconclusive [inhibitor, single point]"}, {"compound": "O=C(NN1CCOCC1)c1ccco1", "Potency": "inconclusive [inhibitor, single point]"}, {"compound": "CCOCC(=O)Nc1nnc(C2CCCCC2)s1", "Potency": "inactive"}, {"compound": "N#C/C(=C(/O)CN1CCN(c2ccccc2F)CC1)c1nc(-c2ccccc2)cs1", "Potency": "inconclusive [inhibitor, partial curve]"}, {"compound": "CCOC(=O)c1c(CSc2ccccc2)oc2cc(Br)c(O)c(CN(C)C)c12", "Potency": "inconclusive [inhibitor, single point]"}, {"compound": "COc1ccc(NC(=O)CCSc2nc(-c3ccco3)cc(C(F)(F)F)n2)cc1OC", "Potency": "inconclusive [inhibitor, single point]"}, {"compound": "NC(=O)c1cccn1Cc1ccccc1Cl", "Potency": "inconclusive [inhibitor, single point]"}, {"compound": "COc1cc(OC)c(C(=O)NNC(=O)CN(C)S(=O)(=O)c2ccc(Cl)cc2)cc1OC", "Potency": "inactive"}, {"compound": "O=C(CCCNS(=O)(=O)c1ccc(Cl)c(Cl)c1)NCCc1ccccn1", "Potency": "inactive"}, {"compound": "CCc1ccc(OCCSc2nc(-c3cccc(C)c3)nc3cc(=O)[nH]n23)cc1", "Potency": "inconclusive [inhibitor, single point]"}, {"compound": "CCn1c(C)nc([N+](=O)[O-])c1C(=O)O", "Potency": "inactive"}, {"compound": "O=C(COc1cccc2c1CCNC2=O)Nc1cccc(C(F)(F)F)c1", "Potency": "active: 16.4 µM"}, {"compound": "CCn1c(CN2CCCCC2)nc2cc(S(=O)(=O)N3CCCCC3)ccc21", "Potency": "inconclusive [inhibitor, single point]"}, {"compound": "Cc1ccc(-c2noc(C3CCCN(C(=O)c4cccc(F)c4)C3)n2)cc1", "note": "(stereo not drawn)", "Potency": "active: 29.1 µM"}, {"compound": "CCCC(=O)Nc1ccc(Sc2ccc([N+](=O)[O-])cc2)cc1", "Potency": "active: 2.31 µM"}, {"compound": "O=C(Nc1nnc(COc2ccc(Cl)cc2)s1)C1CCCO1", "note": "(stereo not drawn)", "Potency": "inconclusive [inhibitor, partial curve]"}, {"compound": "O=C(Nc1cnccn1)c1ccc(Cl)cc1", "activity change, negative = growth inhibition": "inconclusive: -30.1% [inhibitor]"}, {"compound": "C=CCn1c(=NC(=O)c2ccco2)sc2cc(C(=O)OC)ccc21", "Potency": "inconclusive [inhibitor, single point]"}, {"compound": "Cc1ccc2cc(CN(CCN3CCOCC3)C(=O)NCc3ccccc3)c(=O)[nH]c2c1C", "Potency": "inconclusive [inhibitor, partial curve]"}, {"compound": "CCc1noc(C)c1C(=O)Nc1nc(-c2ccccc2)c(C(C)=O)s1", "Potency": "inactive"}, {"compound": "CC1(C)CC(=O)C=C(C(=O)N2CCCC(C(=O)c3cc(F)ccc3F)C2)O1", "note": "(stereo not drawn)", "Potency": "inconclusive [inhibitor, single point]"}, {"compound": "CCc1noc(C)c1C(=O)Nc1nc(-c2ccc(F)cc2)c(C)s1", "Potency": "inconclusive [inhibitor, partial curve]"}, {"compound": "CCOc1cc(CNCCSc2nnnn2-c2ccccc2)ccc1OC", "Potency": "active: 10.3 µM"}, {"compound": "Cc1cc(C)c(NC(=O)C(C)n2nnc3sc(-c4ccccc4)cc3c2=O)c(C)c1", "note": "(stereo not drawn)", "Potency": "inactive"}, {"compound": "COc1ccc(CNC(=O)C(c2cccs2)N(Cc2ccco2)C(=O)Cc2cccs2)cc1", "note": "(stereo not drawn)", "Potency": "active: 23.1 µM"}, {"compound": "C#CCn1cc(/C=C2\\NC(=O)NC2=O)c2ccccc21", "Potency": "inconclusive [inhibitor, single point]"}]}]}
